Numbering of substitutions follows the chain as printed. Names and notes keep the numbering of the source. ± gives the standard deviation of the averaged measurements. Laboratory Escherichia coli strains with one amino-acid change in an essential protein, pooled on minimal glucose agar with carbenicillin or gentamicin at twice the control MIC (plus kanamycin and chloramphenicol for the plasmids), 48 h. Fold change of barcode share against drug-free plates; higher = less susceptible. Active = above 20 in both replicates (the paper's putatively resistant). '<' = one read or none on drug, '>' = one read or none on a drug-free plate. Shares are relative, so most strains fall below 1 when a few take over. Listed are strains with at least 15 reads on both drug-free plates, and hits; most hits rest on fewer reference reads. Replicate rank correlation about 0.5. Edits are read from barcodes.
B1: asnS V74A (protein)
chain: MSVVPVADVLQGRVAVDSEVTVRGWVRTRRDSKAGISFLAVYDGSCFDPVQAVINNSLPNYNEDVLRLTTGCSAIVTGKVVASPGQGQQFEIQASKVEVAGWVEDPDTYPMAAKRHSIEYLREVAHLRPRTNLIGAVARVRHTLAQALHRFFNEQGFFWVSTPLITASDTEGAGEMFRVSTLDLENLPRNDQGKVDFDKDFFGKESFLTVSGQLNGETYACALSKIYTFGPTFRAENSNTSRHLAEFWMLEPEVAFANLNDIAGLAEAMLKYVFKAVLEERADDMKFFAERVDKDAVSRLERFIEADFAQVDYTDAVTILENCGRKFENPVYWGVDLSSEHERYLAEEHFKAPVVVKNYPKDIKAFYMRLNEDGKTVAAMDVLAPGIGEIIGGSQREERLDVLDERMLEMGLNKEDYWWYRDLRRYGTVPHSGFGLGFERLIAYVTGVQNVRDVIPFPRTPRNASF
B2: murF V357W (protein)
chain: MISVTLSQLTDILNGELQGADITLDAVTTDTRKLTPGCLFVALKGERFDAHDFADQAKAGGAGALLVSRPLDIDLPQLIVKDTRLAFGELAAWVRQQVPARVVALTGSSGKTSVKEMTAAILSQCGNTLYTAGNLNNDIGVPMTLLRLTPEYDYAVIELGANHQGEIAWTVSLTRPEAALVNNLAAAHLEGFGSLAGVAKAKGEIFSGLPENGIAIMNADNNDWLNWQSVIGSRKVWRFSPNAANSDFTATNIHVTSHGTEFTLQTPTGSVDVLLPLPGRHNIANALAAAALSMSVGATLDAIKAGLANLKAVPGRLFPIQLAENQLLLDDSYNANVGSMTAAVQVLAEMPGYRVLWVGDMAELGAESEACHVQVGEAAKAAGIDRVLSVGKQSHAISTASGVGEHFADKTALITRLKLLIAEQQVITILVKGSRSAAMEEVVRALQENGTC
B3: murF V442A (protein)
chain: B2 chain with W357V, V442A
B4: murF V442W (protein)
chain: B2 chain with W357V, V442W
B5: murF V357Q (protein)
chain: B2 chain with W357Q
B6: murF V442P (protein)
chain: B2 chain with W357V, V442P
B7: murF V442D (protein)
chain: B2 chain with W357V, V442D
B8: murF L347D (protein)
chain: B2 chain with L347D, W357V
B9: murF V442Q (protein)
chain: B2 chain with W357V, V442Q
B10: murG V121W (protein)
chain: MSGQGKRLMVMAGGTGGHVFPGLAVAHHLMAQGWQVRWLGTADRMEADLVPKHGIEIDFIRISGLRGKGIKALIAAPLRIFNAWRQARAIMKAYKPDVVLGMGGYVSGPGGLAAWSLGIPWVLHEQNGIAGLTNKWLAKIATKVMQAFPGAFPNAEVVGNPVRTDVLALPLPQQRLAGREGPVRVLVVGGSQGARILNQTMPQVAAKLGDSVTIWHQSGKGSQQSVEQAYAEAGQPQHKVTEFIDDMAAAYAWADVVVCRSGALTVSEIAAAGLPALFVPFQHKDRQQYWNALPLEKAGAAKIIEQPQLSVDAVANTLAGWSRETLLTMAERARAASIPDATERVANEVSRVARA
B11: murG L100Q (protein)
chain: B10 chain with L100Q, W121V
B12: murG L100A (protein)
chain: B10 chain with L100A, W121V

Target: Escherichia coli (laboratory strain)
Assay: barcode share on antibiotic plates over drug-free plates; higher = less susceptible
Protocol: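 A pool of E. coli strains, each edited to carry one amino-acid change in an essential protein, was grown for 48 h on minimal glucose agar with or without antibiotic; strain barcodes were sequenced; mean of two replicates.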

[1] = antibiotic: carbenicillin, 2× MIC (3.1 µg/mL)
[2] = antibiotic: gentamicin, 2× MIC (MIC 0.45 µg/mL)

Protein | fold change of barcode share [1] | fold change of barcode share [2]
B1 | 0.291 ± 0.15 | 0.0145 ± 0.013
B2 | 0.0485 ± 0.044 | 
B3 | 0.35 ± 0.14 | < 0.00973
B4 | 0.345 ± 0.27 | 0.0317 ± 0.034
B5 | 0.0277 ± 0.014 | 
B6 | 0.23 ± 0.017 | < 0.00869
B7 | 0.281 ± 0.13 | < 0.0116
B8 | 0.0483 ± 0.018 | 
B9 | 0.275 ± 0.082 | < 0.00447
B10 | 0.333 ± 0.073 | 0.00814 ± 0.0085
B11 | 0.254 ± 0.084 | 0.00317 ± 0.0015
B12 | 0.3 ± 0.02 | 0.0092 ± 0.0019
